# Data from PubChem BioAssay AID1240 (Sanford-Burnham Center for Chemical Genomics, 2008).
# About 800 (1.6%) of roughly 50,000 compounds showed an effect of 50% or more. This is one part of the list.
# Molecular target: Bcl-2-like protein 10 (Homo sapiens) (UniProt Q9HD36)
# Experiment: TR3 peptide-Bcl-B binding displacers, biochemical primary FP assay, phenotype converters (AID 1240);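 further: 0% = Bcl-B with tracer peptide and DMSO and 100% = tracer peptide lacking Bcl-B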
# Details: GST-Bcl-B / FITC-TR3 peptide fluorescence polarization; stronger effect = higher value; compound at 3.75 mg/L
# Sequence of UniProt Q9HD36 (Q9HD36 whole entry, looked up): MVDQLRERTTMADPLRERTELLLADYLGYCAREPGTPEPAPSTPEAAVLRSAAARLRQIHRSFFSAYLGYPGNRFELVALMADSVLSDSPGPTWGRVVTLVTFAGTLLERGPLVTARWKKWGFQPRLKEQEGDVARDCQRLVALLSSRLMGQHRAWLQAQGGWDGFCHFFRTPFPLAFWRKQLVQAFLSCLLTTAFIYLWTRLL
row,Structure (SMILES),displacement [%]
1,CCOc1ccc(-c2nc3sc4c(c3c(=O)[nH]2)CCCC4)cc1OCC,1.2
2,COc1cc(C2CC(=O)NC(C)=C2C(=O)OC(C)C)c(Br)c(OC)c1OC (stereo not drawn),-3.5
3,COc1ccc(S(=O)(=O)N2CCCC2)cc1Br,4.5
4,CC(=O)N1N=C2CCCCC2C1C(C)C (stereo not drawn),7.8
5,CN(C)c1ccc(NC(=O)CCC2CCCCC2)cc1,30.7
6,OCCNCCCCOc1cccc(Cl)c1,7.4
7,COc1cccc(/C=C2\CC/C(=C\c3cccc(OC)c3OC)C2=O)c1OC,3.7
8,CCOC(=O)Cc1csc(NC(=O)COc2ccccc2[N+](=O)[O-])n1,-2
9,CC(=O)C1=C(C)NC(C)=C(C(C)=O)C1c1cccs1,-20.1
10,Cc1nnc(N/N=C/c2cccc([N+](=O)[O-])c2)[nH]c1=O,4.8
11,Fc1ccccc1OCCOCCOc1ncnc2ccccc12,-4
12,O=C(c1ccccc1)N1CCN(Cc2cccc(Oc3ccccc3)c2)CC1,-8.8
13,O=C(O)C1CC=CCC1C(=O)Nc1cccc(O)c1 (stereo not drawn),1.6
14,COc1ccc(N2C(=O)NC(=O)/C(=C\c3ccc(OC)cc3C)C2=O)cc1,0.7
15,CCOc1ccc(C(=O)Nc2ccc(NC(=O)CC)cc2)cc1Cl,13.6
16,Cc1cccc(COc2ccc3c(c2)oc(=O)c2ccccc23)c1,6.2
17,O=C(NCCc1ccccc1)C(=O)Nc1cccc(Cl)c1,5.5
18,CC(=O)c1c(N2CCOCC2)nc(=S)n(-c2ccc([N+](=O)[O-])cc2)c1C,-7.4
19,CCN(CC)C(=O)c1sc(NC(=O)c2ccc(Cl)cc2)c(C#N)c1C,-4.4
20,O=C(Nc1cccc(Oc2ccc3c(c2)C(=O)N(c2ccccc2)C3=O)c1)c1cccc([N+](=O)[O-])c1,12.7
21,CCC(=O)Nc1cccc(NC(=O)c2ccc([N+](=O)[O-])cc2)c1,16.4
22,O=C1/C(=C/c2cccc(O)c2)SC(=S)N1c1cccc(Br)c1,16.4
23,CC/C(=C1/C(=O)N(c2nc3ccccc3s2)N=C1C(F)(F)F)N1CCOCC1,-7

row,Structure (SMILES),displacement [%]
1,Cc1cc(Br)cc(/C=N/NC(=O)c2cncc(Br)c2)c1O,8.9
2,O=C(NC(=O)c1ccncc1)NC(c1ccccc1)c1ccccc1,0.6
3,CCCN(CCC)C(=O)c1ccccc1NC(=O)c1ccccc1Cl,10.7
4,COc1ccc(CCNC(=O)C(=O)Nc2ccc(OC)c(Cl)c2)cc1,-7
5,C=C(C)Cn1c(-c2ccc(Br)cc2)n[nH]c1=S,-6.1
6,CCOC(=O)C(C)P(=O)(c1ccccc1)c1ccccc1 (stereo not drawn),11.9
7,CC1CN(c2ccc(C(F)(F)F)cc2[N+](=O)[O-])CCN1S(C)(=O)=O (stereo not drawn),8.9
8,C=CCN1C(=O)C(Cc2ccc(OC)cc2)SC1=Nc1ccc(C(=O)O)cc1 (stereo not drawn),-10.3
9,Cc1ccc(-c2nc3ccc(C)cn3c2NC(=O)c2ccco2)cc1,9.9
10,CCCOc1ccc(C2Nc3ccccc3NC3=C2C(=O)CC(c2ccc(OC)c(OC)c2)C3)cc1 (stereo not drawn),-1.6
11,COc1ccc(Cn2c(SC)nc(O)cc2=O)cc1,-2
12,CC(=O)Nc1nnc(Cc2ccc(Cl)cc2)s1,-1.6
13,Cc1c(Cl)cccc1NC(=O)C(=O)NC1CC(C)(C)NC(C)(C)C1,-0.4
14,CCOc1ccc2ccccc2c1/C=N/NC(=O)CN1CCOCC1,-3.9
15,Cc1ccc(NC(=O)c2cc(Br)ccc2Cl)c([N+](=O)[O-])c1,12.1
16,COC(C(=O)N/N=C/c1ccc2c3c(cccc13)CC2)c1ccccc1 (stereo not drawn),1.9
17,O=C1C(=O)N(c2cccnc2)C(c2cccc(F)c2)/C1=C(\O)c1ccc(Cl)cc1 (stereo not drawn),-3.5
18,Cc1cc(C)c(OCCNC(C)(C)C)c(Cl)c1,-2.1
19,COc1cc(NC(=O)COc2ccc(Cl)c(C)c2)ccc1NC(=O)c1ccco1,-6.3
20,Nc1nnc(Cc2ccc(Cl)cc2Cl)s1,-4
21,O=[N+]([O-])c1cc(-n2ncnc2-c2cccs2)ccc1F,16.1
22,CCOC(=O)C1CCN(C(=S)Nc2ccc(OCC)cc2)CC1,-2.6
23,CCC(=O)Oc1ccc2c(C)c(CC)c(=O)oc2c1I,-0.6

row,Structure (SMILES),displacement [%]
1,CCOc1ccc(-c2cc(C(=O)NN)c3ccccc3n2)cc1,-18
2,O=C(O)CCCC1OC(CCCC(=O)O)OC(CCCC(=O)O)O1 (stereo not drawn),0.6
3,O=C1c2ccccc2C(=O)N1c1ccc2c(c1)C(=O)N(c1ccccc1)C2=O,-2.4
4,O=C(COc1ccccc1)Nc1cccc(NC(=O)c2ccco2)c1,-10.7
5,NNC(=O)/C(=C\c1cccs1)NC(=O)c1ccccc1,-14.5
6,Cc1ccccc1OCC(=O)Nc1ccccc1CO,-7.8
7,COCCNC(=O)CN(c1ccc(C)c(Cl)c1)S(C)(=O)=O,-6.8
8,COc1cccc(/C=C/C(=O)c2ccc(F)cc2)c1,3.6
9,CCOC(=O)c1c(NC(=O)c2cc(OC)c(OC)c(OC)c2)sc2c1CCC(C)C2 (stereo not drawn),5.9
10,CCc1nn2c(N)c(C=C3C=C(Cl)C(=O)C(Cl)=C3)c(=O)nc2s1,-1.8
11,CC(C)(C)c1cc(N)c(O)c(C(C)(C)C)c1,-1.9
12,O=C(/C=C/c1ccc(-c2ccccc2[N+](=O)[O-])o1)NCc1ccccc1,-12.8
13,O=C1c2cc(S(=O)(=O)Nc3ccncc3)ccc2-c2ccc(S(=O)(=O)Nc3ccncc3)cc21,14.2
14,Cn1c(=O)c2c(nc3n2CC(=O)N3c2ccc(F)cc2F)n(C)c1=O,7.3
15,CCOC(=O)Cc1c(C)n2nc(C)cc2[nH]c1=O,8
16,Cc1ccc(S(=O)(=O)C(CC(=O)c2ccccc2)c2ccc(Cl)cc2)cc1 (stereo not drawn),-7.1
17,Cc1ccc(NC(=O)c2ccc(NC(=O)c3ccc(Cl)cc3Cl)cc2)cc1,11.5
18,CC1=NN(c2ccccc2)C(=O)/C1=C\c1ccc(N2CCOCC2)c([N+](=O)[O-])c1,13.4
19,Cc1ccccc1-n1c(=O)c2ccccc2n2c(=O)[nH]nc12,15.9
20,C=CCSc1nnc(-c2ccc(Br)cc2)o1,-8.1
21,NNC(=O)COc1ccc(-c2cc(-c3ccccc3)c3cc(Br)ccc3n2)cc1,-7
22,C=CCN(CC=C)C(=O)c1cc(Cl)ccc1[N+](=O)[O-],-2.9
23,CN(C)CCCNC(=O)/C=C/c1ccc(Cl)cc1,14

row,Structure (SMILES),displacement [%]
1,Cc1cc(N=CC2=C(O)CC(C)(C)CC2=O)no1,-3.3
2,Cc1cc(C)cc(CSCC(=O)Nc2c(C)cccc2C)c1,-1.8
3,Cc1ccc2c(c1)-c1c(ssc1=S)C(C)(C)N2C(=O)Cc1ccc(F)cc1,0.2
4,Cc1c(Cc2ccccc2)c(=O)oc2cc(OCc3ccc([N+](=O)[O-])cc3)ccc12,-7.1
5,O=C1c2cccc3cccc(c23)C(=O)N1Nc1ccc([N+](=O)[O-])cc1,3.8
6,O=C1c2ccccc2C(=O)N1c1ncc(Cc2cccc(Cl)c2Cl)s1,-9.2
7,CC1=C(C)CC(C(=O)Nc2ccc(Br)cc2)C(C(=O)O)C1 (stereo not drawn),-5.8
8,CC1=NN(c2ccccc2)C(=O)/C1=C\c1ccc(-c2cc([N+](=O)[O-])ccc2O)o1,17.6
9,Cc1ccc(C2Nc3ccc(C(=O)c4ccccc4)cc3NC3=C2C(=O)CCC3)o1 (stereo not drawn),-19.8
10,Cc1ccc(S(=O)(=O)NC(C)c2ccccc2)cc1 (stereo not drawn),-7.7
11,COc1ccc(N(CC(=O)NC2CCCCC2)S(=O)(=O)c2ccccc2)cc1Cl,7.2
12,CCCCCc1c(O)nc(SCC(=O)O)[nH]c1=O,-10.3
13,O=C1CC(c2ccccc2)CN1C(=O)c1cncc(Br)c1 (stereo not drawn),-9.6
14,Nc1nc2ccccc2n1Cc1ccccc1,14.2
15,Nc1nnc(CSc2ccccc2)s1,5
16,Cc1cc(C)c(C)c(OCCCCCCN2CCCC2)c1,9
17,COc1cccc(N2C(=O)NC(=O)C(=Cc3ccc(N(C)C)cc3)C2=O)c1,0.5
18,Cc1ccc(N(CC(=O)NCc2ccncc2)S(=O)(=O)c2ccccc2)cc1C,11.8
19,CC(Oc1cc2oc(=O)c3c(c2cc1Cl)CCCC3)C(=O)c1ccccc1 (stereo not drawn),-5.1
20,CCC1CCc2c(sc(NC(=O)c3cc4ccccc4oc3=O)c2C#N)C1 (stereo not drawn),-1.3
21,O=C(O)C1CC(O)CN1C(=S)Nc1ccccc1 (stereo not drawn),2.4
22,Cc1ccc(Nc2ncnc3ccc(Br)cc23)cc1C,1.3
23,CCOC(=O)C(CCOc1c(C)cc(Cl)cc1C)C(=O)OCC,-5.7

row,Structure (SMILES),displacement [%]
1,Cc1cc(NC(=O)c2cccc3c(Br)cccc23)ccc1NC(=O)c1ccco1,-6.6
2,O=c1[nH]c(=S)n(-c2ccc(Br)cc2)c(O)c1/C=C1\C=Nc2ccccc21,40.7
3,O=C(NCCSCc1ccccc1Cl)C(c1ccccc1)c1ccccc1,0.9
4,O=C(c1coc2ccc(O)c(CN3CCOCC3)c12)C1CC1,-11.1
5,Cc1c(Cl)cccc1-n1ncnc1-c1cccc(Br)c1,-1.9
6,COC(=O)C1=C(C(=O)OC)C2(OC1c1cccc(F)c1)C(=O)c1ccccc1C2=O (stereo not drawn),-0.3
7,O=C1C(Cl)=C(Nc2ccccc2)C(=O)N1c1ccc(Br)cc1,6.4
8,COc1ccc(CC(=O)Nc2ccc(Br)c(C)c2)cc1OC,11
9,CCOc1ccccc1NC(=O)CSc1nnc(C)s1,7.3
10,COc1ccc(/C=C2\SC(=S)N(C(C(=O)O)C(C)C)C2=O)c(OC)c1 (stereo not drawn),1.7
11,Brc1ccc(/C=N/N2CCN(c3ccccn3)CC2)cc1,-8.8
12,COc1ccc(NC(=O)COc2cccc(Cl)c2)c(OC)c1,-4
13,CCOc1ccc(Nc2nc(-c3c(C)nc4cc(C)ccn34)cs2)cc1,-17.2
14,Cc1ccc(C)c(NC(=O)c2ccc(-c3cccc(Cl)c3C)o2)c1,0.5
15,Oc1cccc(/C=N/Nc2cc(N3CCOCC3)nc(N3CCOCC3)n2)c1,2
16,COc1ccc(C(=O)CSc2nnc(COc3ccc(Cl)cc3Cl)o2)cc1,2.5
17,O=C(CC(=O)NC1CCCCC1)N/N=C/c1ccccc1OCc1ccccc1,-2.6
18,O=C1C=CC(=O)N1c1cccc(Br)c1,-19.2
19,CCn1c2ccccc2c2cc(CNCc3ccc4c(c3)OCO4)ccc21,-3.3
20,COC(=O)C1=C(C)NC(=O)CC1c1ccc(Cl)cc1Cl (stereo not drawn),17.5
21,O=C(NCC(O)c1ccccc1)C(=O)Nc1ccc(F)cc1 (stereo not drawn),5
